Data as given in PMC4336329 (PLoS ONE, 2015).
About 14,000 (4.5%) of roughly 310,000 compounds showed an effect of 50% or more. The effect is printed as a negative number. The list shows a part of the results.

The molecules below were run against human ether-à-go-go-related gene (hERG) potassium channel (human, UniProt Q12809) (assay: primary screen, population patch clamp on CHO cells stably expressing hERG).
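Further: peak tail current of the secondary pulse compared with the same well before compound.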

human ether-à-go-go-related gene (hERG) potassium channel, sequence (Q12809 whole entry, looked up): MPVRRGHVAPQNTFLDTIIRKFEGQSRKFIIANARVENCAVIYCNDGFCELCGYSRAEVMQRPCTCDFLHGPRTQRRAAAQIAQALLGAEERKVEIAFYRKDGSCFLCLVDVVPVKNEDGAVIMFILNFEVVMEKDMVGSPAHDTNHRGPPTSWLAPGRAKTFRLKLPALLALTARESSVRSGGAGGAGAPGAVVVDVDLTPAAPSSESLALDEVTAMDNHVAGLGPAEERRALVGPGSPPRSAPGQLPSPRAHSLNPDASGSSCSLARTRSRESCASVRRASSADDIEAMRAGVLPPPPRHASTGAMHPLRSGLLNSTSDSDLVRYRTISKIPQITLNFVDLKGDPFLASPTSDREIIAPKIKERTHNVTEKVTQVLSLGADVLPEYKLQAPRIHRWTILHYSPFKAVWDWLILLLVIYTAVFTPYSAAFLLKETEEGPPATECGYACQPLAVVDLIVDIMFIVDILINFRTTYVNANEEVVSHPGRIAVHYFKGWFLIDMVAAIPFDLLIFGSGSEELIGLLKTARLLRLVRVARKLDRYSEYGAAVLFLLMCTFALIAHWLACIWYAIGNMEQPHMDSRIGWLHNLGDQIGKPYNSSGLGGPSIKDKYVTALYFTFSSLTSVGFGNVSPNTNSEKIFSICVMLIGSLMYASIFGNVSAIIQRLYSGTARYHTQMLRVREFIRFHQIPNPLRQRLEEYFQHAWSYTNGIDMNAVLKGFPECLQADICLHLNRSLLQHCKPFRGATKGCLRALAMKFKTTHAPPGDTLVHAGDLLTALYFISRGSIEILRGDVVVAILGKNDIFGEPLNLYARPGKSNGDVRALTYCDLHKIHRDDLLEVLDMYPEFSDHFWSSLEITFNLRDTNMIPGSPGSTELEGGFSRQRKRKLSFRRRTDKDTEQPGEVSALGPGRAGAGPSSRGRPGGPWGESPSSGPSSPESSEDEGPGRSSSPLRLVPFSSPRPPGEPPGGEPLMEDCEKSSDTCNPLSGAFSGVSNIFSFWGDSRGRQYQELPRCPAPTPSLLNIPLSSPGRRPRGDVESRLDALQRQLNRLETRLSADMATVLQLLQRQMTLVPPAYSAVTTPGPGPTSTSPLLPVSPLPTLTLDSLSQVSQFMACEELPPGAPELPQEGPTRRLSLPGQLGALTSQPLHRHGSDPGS

First: CCCCCCn1c(SCCC)nc2c1c(=O)[nH]c(=O)n2C
Second: CCCCn1c(O)c(C(=O)/C=C/c2ccc3c(c2)OCO3)c(=O)[nH]c1=O
The “hERG current change (%, negative = inhibition) at 10uM” value of the first is lower: -9.85% for the first, 8.55% for the second.

Going from O=S(Cc1cc(Sc2ccccc2)nc(-c2ccccc2)n1)c1ccccc1 (stereo not drawn) to COc1ccc(Sc2nnc(-c3ccccc3)cc2C#N)cc1, the “hERG current change (%, negative = inhibition) at 10uM” value rises from 10.7% to 17.5%.

Compared with O=C(Cn1ccc(C(F)(F)F)n1)NNC(=O)c1ccco1, COC(=O)C(C)Sc1nc(N)c(NC(=O)c2ccco2)c(=O)[nH]1 (stereo not drawn) is lower in “hERG current change (%, negative = inhibition) at 10uM” value: 8.94% for the first, 4.02% for the second.

First: COc1cc(-c2nnc(NC(=O)CCS(=O)(=O)c3ccc(F)cc3)o2)cc(OC)c1OC
Second: COc1ccc(CNC(=O)CCn2c(=O)oc3ccccc32)c(OC)c1
The “hERG current change (%, negative = inhibition) at 10uM” value of the first is higher: 6.48% for the first, 0.0303% for the second.

Compared with Cc1nc(SCn2nnc3ccccc3c2=O)nc(C)c1C, CCn1c(C)nc2c(=O)oc3ccccc3c21 is higher in “hERG current change (%, negative = inhibition) at 10uM” value: -12.3% for the first, -9.57% for the second.

Compared with CC(C)[C@H](NC(=O)c1ccccc1Br)C(=O)OCc1nc2ccsc2c(=O)[nH]1, Cc1ccc(C)c(NC(=O)COC(=O)CNC(=O)c2ccccc2Cl)c1 is higher in “hERG current change (%, negative = inhibition) at 10uM” value: -30.8% for the first, 8.05% for the second.

First: NC(N)=O
Second: CCC(c1nnnn1CCC(C)C)N1CCC(C(N)=O)CC1 (stereo not drawn)
The “hERG current change (%, negative = inhibition) at 10uM” value of the first is higher: 16% for the first, 0.376% for the second.

Compared with O=C(OCc1ccc2c(c1)OCO2)c1cccc(S(=O)(=O)N2CCCCC2)c1, O=C(O)COc1ccccc1/C=N/NC(=O)c1cccc(S(=O)(=O)N2CCOCC2)c1 is higher in “hERG current change (%, negative = inhibition) at 10uM” value: -6.15% for the first, 7.54% for the second.

Compared with C=CCn1c(SCC(=O)Nc2ccccc2C)nc(O)cc1=O, Cc1nnc(SCC(=O)Nc2ccc3c(c2)COC3=O)n1-c1ccccc1 is lower in “hERG current change (%, negative = inhibition) at 10uM” value: 5.99% for the first, -10.1% for the second.

First: Cc1ccc(NC(=O)c2cccc(S(=O)(=O)N3CCN(c4ccccc4)CC3)c2)nc1
Second: O=C(c1ccc(-n2cncn2)c([N+](=O)[O-])c1)N1CCN(S(=O)(=O)c2ccccc2F)CC1
The “hERG current change (%, negative = inhibition) at 10uM” value of the first is higher: -1.19% for the first, -45.1% for the second.

First: Cc1cc(C)cc(Nc2ncc3c(n2)CC(c2ccco2)CC3=O)c1 (stereo not drawn)
Second: Cc1cc(C)cc(Nc2nc3ccccc3c(=O)[nH]2)c1
The “hERG current change (%, negative = inhibition) at 10uM” value of the first is lower: -23.3% for the first, 19.3% for the second.

Going from C(=C\c1nc2ccccc2[nH]1)/c1ccccc1 to O=C1CC(c2ccccc2)CC(O)=C1C=Nc1ccccc1O (stereo not drawn), the “hERG current change (%, negative = inhibition) at 10uM” value rises from -31.2% to 11.4%.

Compared with COc1ccccc1/C=N/NC(=O)c1ccc(C)nc1, Cc1cnc(NC(=O)Nc2ccccc2)c(C)n1 is lower in “hERG current change (%, negative = inhibition) at 10uM” value: 13.4% for the first, 11.1% for the second.

First: CC1(C)CC(=O)C2=C(C1)Nc1ccccc1NC2c1cccs1 (stereo not drawn)
Second: Cc1ccc(N2C(N)=C(C#N)C(c3ccsc3)C3=C2CC(C)(C)CC3=O)cc1 (stereo not drawn)
The “hERG current change (%, negative = inhibition) at 10uM” value of the first is higher: 5.74% for the first, -3.24% for the second.

Compared with Cc1ccc(Oc2ccccc2NC(=O)CN2C(=O)NC3(CCCC3)C2=O)cc1, COc1ccc(NC(=O)c2ccc3c(c2)C(=O)N(CC2CCCO2)C3=O)cc1 (stereo not drawn) is lower in “hERG current change (%, negative = inhibition) at 10uM” value: 11% for the first, 2.08% for the second.

Compared with COc1cccc(C(=O)N(Cc2nc(-c3cccc(C)c3)no2)C(C)C)c1OC, CCC(C)N1CC(=O)N2C(c3ccc(OC)cc3OC)c3[nH]c4ccccc4c3C[C@H]2C1=O (stereo partly drawn) is lower in “hERG current change (%, negative = inhibition) at 10uM” value: -4.61% for the first, -49.8% for the second.

First: COc1ccccc1NC(=O)C1=C(C)NC2=C(C(=O)CC(c3ccc(OC)c(OC)c3)C2)C1c1coc2ccccc2c1=O (stereo not drawn)
Second: COc1ccc(-c2ccc(OC)c([C@H]3[C@@H]4C=CCC[C@@]4(C)C(=O)N3Cc3ccccc3)c2)cc1OC
The “hERG current change (%, negative = inhibition) at 10uM” value of the first is lower: -0.338% for the first, 19.6% for the second.

First: C=CCc1cccc(C=Nc2ccc(Br)cc2)c1O
Second: C/C(=N\NC(=S)NCc1ccccc1)c1ccc(Br)cc1
The “hERG current change (%, negative = inhibition) at 10uM” value of the first is lower: -4.96% for the first, 22.8% for the second.

First: COc1ccc([C@H](OC)[C@@]2(Cc3ccc(O)cc3)N=C(N)N(C)C2=O)cc1
Second: CCOc1ccc(C(NC(=O)/C=C/c2ccco2)c2ccc(OC)c(OC)c2)cc1 (stereo not drawn)
The “hERG current change (%, negative = inhibition) at 10uM” value of the first is higher: 4.5% for the first, -2.06% for the second.

Compared with O=C(NCCc1ccc(O)c(O)c1)C1COc2ccccc2O1 (stereo not drawn), O=C(CCCN1C(=O)C(c2ccccc2)Oc2cccnc21)NCc1ccc(F)cc1 (stereo not drawn) is lower in “hERG current change (%, negative = inhibition) at 10uM” value: 31.1% for the first, 1.77% for the second.

Compared with COc1ccc(NC(=S)N(CCCOC(C)C)C2CCN(C(C)=O)CC2)cc1Cl, COc1ccc(NC(=S)NCCCN2CCCC2=O)c(OC)c1 is higher in “hERG current change (%, negative = inhibition) at 10uM” value: -11.5% for the first, 7.37% for the second.

Compared with CC(C)Cc1nnc(NC(=O)CCC(=O)N2CCN(C3CCCC3)CC2)s1, CC1CCN(C(=O)CCc2nnc(-c3ccccc3)o2)CC1 is lower in “hERG current change (%, negative = inhibition) at 10uM” value: 8.3% for the first, -5.83% for the second.

Compared with CC(C)CCNC(=O)CN(C(=O)Cn1nnc(-c2ccccc2F)n1)c1cccc2c1CCCC2, CCOC(=O)C1CCN(c2c(NCc3ccc(C(=O)N(C)Cc4ccccc4)cc3)c(=O)c2=O)CC1 is lower in “hERG current change (%, negative = inhibition) at 10uM” value: -6.84% for the first, -65.2% for the second.

Going from Cc1cccc(-c2c3c(=O)n(C)c(=O)n(C)c3c3cccnn23)c1 to CCn1[nH]c(=O)c(=Nc2c(C)n(C)n(-c3ccccc3)c2=O)cc1-c1ccc(Cl)cc1, the “hERG current change (%, negative = inhibition) at 10uM” value falls from -4.1% to -35.3%.

Going from CCOc1ccc(OCC(=O)OCn2c(SC)nnc(C)c2=O)cc1 to CCN=C1SC(C(=O)Nc2cccc(OCC)c2)CC(=O)N1CC (stereo not drawn), the “hERG current change (%, negative = inhibition) at 10uM” value falls from 5.27% to -10.6%.

Compared with Cc1ccc(C)c(C(=O)CCC(=O)NNC(=O)Cn2nc(C)cc2C)c1, Cc1cc(C)n(Cc2ccc(C(=O)O)cc2)n1 is higher in “hERG current change (%, negative = inhibition) at 10uM” value: 2.92% for the first, 14.3% for the second.

Going from CCc1nnc(NC(=O)CSc2nnc(Cc3ccccc3)n2-c2ccc(OC)cc2)s1 to COc1ccc(C2CC(c3cccs3)=NN2C(=O)c2ccccc2)cc1OC (stereo not drawn), the “hERG current change (%, negative = inhibition) at 10uM” value falls from 4.11% to -25.9%.

Compared with CC(NC(=O)C(=O)NN=C1CCCCCC1)c1ccccc1 (stereo not drawn), O=C(NCC(c1cccnc1)N1CCN(c2ccccc2)CC1)C1CCCCC1 (stereo not drawn) is lower in “hERG current change (%, negative = inhibition) at 10uM” value: -2.19% for the first, -15.6% for the second.

Compared with Cc1ccc(C2=NC3(CCCCCC3)NC2=S)cc1, CCOC(=O)c1sc(C)c2c1NC1(CCCCC1)NC2=O is lower in “hERG current change (%, negative = inhibition) at 10uM” value: -7.38% for the first, -19.8% for the second.

First: CCN(CC(=O)Nc1ccc(NC(C)=O)cc1)C(=O)CCCc1c[nH]c2ccccc12
Second: NS(=O)(=O)c1ccc(NC(=O)N2c3ccccc3Sc3ccccc32)cc1
The “hERG current change (%, negative = inhibition) at 10uM” value of the first is higher: 8.72% for the first, 7.81% for the second.

Going from CN(C)/C=C1\Oc2ccc3ccccc3c2C1=O to COc1ccccc1CN1C(=O)c2cccc3cccc(c23)C1=O, the “hERG current change (%, negative = inhibition) at 10uM” value falls from 22% to 4.29%.

Going from COC(=O)C(C)n1cnc2c(cnn2-c2ccc(Cl)cc2)c1=O (stereo not drawn) to COc1ccc(C(=O)NNC(=O)C(=O)Nc2ccc(C)c(Cl)c2)cc1, the “hERG current change (%, negative = inhibition) at 10uM” value rises from -27.2% to 15.5%.

Going from Fc1ccc(F)c(C2=NNC(=Nc3ccccc3F)SC2)c1 to Cc1onc(-c2ccccc2Cl)c1C(=O)NCc1ccccn1, the “hERG current change (%, negative = inhibition) at 10uM” value falls from 24.8% to 5.34%.

Going from COc1ccc2oc(C(F)(F)C(F)(F)F)cc(=O)c2c1 to COc1ccc(CNC(=O)C2C3C=CC4(CN(Cc5cccnc5)C(=O)C24)O3)cc1 (stereo not drawn), the “hERG current change (%, negative = inhibition) at 10uM” value falls from 3.76% to -16.2%.

Going from O=C(NCCN1CCCC1=O)C1CCC(=O)N(CCc2cccc(F)c2)C1 (stereo not drawn) to COc1ccc(-c2nc(CS(=O)CC(=O)NCCC3=CCCCC3)c(C)o2)cc1 (stereo not drawn), the “hERG current change (%, negative = inhibition) at 10uM” value falls from 9.49% to -24.2%.

Going from CCOC(=O)c1c(S(=O)(=O)N2CCN(c3ccc(C(C)=O)cc3)CC2)c(C)n(C)c1C to CCn1cc(C(=O)N2CCC3(CC2)OCCO3)c(=O)c2cc(S(=O)(=O)N3CCCC3)ccc21, the “hERG current change (%, negative = inhibition) at 10uM” value rises from 5.77% to 16.8%.

Going from CCS(=O)(=O)c1nc(S(=O)(=O)c2ccc(C)cc2)c(NCCCn2ccnc2)s1 to Cc1ccnc2nc(C(=O)OCC(=O)Nc3ccc4c(c3)OC(F)(F)O4)nn12, the “hERG current change (%, negative = inhibition) at 10uM” value falls from -26.5% to -49.1%.

Going from Cc1c(C(=O)O)oc2c1C(O)CC(C)(C)C2 (stereo not drawn) to CC(=O)NC1C(Oc2ccccc2C)OC(CO)C(O)C1O (stereo not drawn), the “hERG current change (%, negative = inhibition) at 10uM” value rises from 1.64% to 14.4%.

First: O=C(NCc1cccnc1)/C(=N\O)c1ccccc1
Second: COC(=O)c1ccccc1NC(=S)NC(=O)COc1ccccc1
The “hERG current change (%, negative = inhibition) at 10uM” value of the first is lower: 5.59% for the first, 13.4% for the second.

First: S=c1[nH]nc(-c2cc(-c3ccco3)[nH]n2)n1-c1cccc2ccccc12
Second: O=C(O)c1ccc(Cn2cnc3scc(-c4ccccc4)c3c2=O)cc1
The “hERG current change (%, negative = inhibition) at 10uM” value of the first is lower: 15% for the first, 20.8% for the second.

Going from CCC(C)N1C(=O)/C(=C/c2ccc3c(c2)CCN3CCCCl)C(=O)NC1=S (stereo not drawn) to COCCN(C(=O)c1cc2c(s1)CCC2)c1c(N)n(CC(C)C)c(=O)[nH]c1=O, the “hERG current change (%, negative = inhibition) at 10uM” value falls from 18.8% to 0.711%.

Going from Cc1cccc(N(C(=O)CCC(=O)Nc2cc(C)on2)C(C(=O)NC2CCCC2)c2cccnc2)c1 (stereo not drawn) to O=C(NC(=S)NN1CCCCC1c1cccnc1)c1ccc(Cl)cc1Cl (stereo not drawn), the “hERG current change (%, negative = inhibition) at 10uM” value falls from 18.2% to -6.98%.

Compared with COC(=O)c1sccc1NC(=O)NC1CCCCC1, O=C(Nc1ccc(C#Cc2ccccc2)cc1)C1CC1 is higher in “hERG current change (%, negative = inhibition) at 10uM” value: -11.1% for the first, 6.19% for the second.

NC(=O)[C@H]1CC2(CC(c3cccc(NC(=O)CC(c4ccccc4)c4ccccc4)c3)=NO2)CN1C(=O)CC(c1ccccc1)c1ccccc1 (stereo partly drawn) was tested, and the “hERG current change (%, negative = inhibition) at 10uM” value was 20.9%.
